Laboratory results reported in the antibiotic and cytotoxicity screens of Wong et al. (2023).
Some of the results follow.

Assays:
HSkMC = human skeletal muscle cells; test: cytotoxicity call (relative viability < 0.9); conditions: 10 µM
HepG2 = test: cytotoxicity call (relative viability < 0.9); conditions: 10 µM
S. aureus RN4220 = test: growth inhibition call (relative growth <= 0.2); conditions: 50 µM

SMILES	cytotoxicity call (HSkMC)	cytotoxicity call (HepG2)	growth inhibition call (S. aureus RN4220)
C[C@H](CO)N1C[C@H](C)[C@@H](CN(C)C(=O)c2cnccn2)Oc2cc(C3=CCCC3)ccc2S1(=O)=O	inactive	inactive	inactive
C[C@H](CO)N1C[C@H](C)[C@H](CN(C)C(=O)c2cccc(F)c2)Oc2cc(-c3cncnc3)ccc2S1(=O)=O	inactive	inactive	inactive
CC(C)NC(=O)Nc1ccc2c(c1)C(=O)N([C@H](C)CO)C[C@H](C)[C@@H](CN(C)S(=O)(=O)c1ccc(F)cc1)O2	inactive	inactive	inactive
S=C1C=C(N2CCCCC2)C[C@H](c2ccc(Cl)cc2)S1	inactive	inactive	inactive
C[C@@H]1CCCCO[C@@H](CN(C)S(=O)(=O)c2cccs2)[C@H](C)CN([C@H](C)CO)C(=O)c2cc(NC(=O)C3CCCCC3)ccc2O1	inactive	inactive	inactive
Nc1cnc2ncc(N)cc2c1	inactive	inactive	inactive
CC[C@@H]1OC(=O)C[C@@H](O)[C@H](C)[C@@H](O[C@@H]2O[C@H](C)[C@@H](O)[C@H](N(C)C)[C@H]2O)[C@@H](CCN2C[C@H](C)C[C@H](C)C2)C[C@@H](C)C(=O)/C=C/C(C)=C\[C@@H]1CO[C@@H]1O[C@H](C)[C@@H](O)[C@@H](OC)[C@H]1OC	inactive	inactive	active
CN1CCN(C(=O)C[C@H]2C=C[C@H](NC(=O)c3ccc4c(c3)OCO4)[C@H](CO)O2)CC1	inactive	inactive	inactive
N=C(N)N.O=C(O)O	inactive	inactive	inactive
CSc1ccc(-c2nnn(CC(N)=O)n2)cc1	inactive	inactive	inactive
